This note sets out measurements from ChEMBL document CHEMBL4888484, “Replenishing the malaria drug discovery pipeline: Screening and hit evaluation of the MMV Hit Generation Library 1 (HGL1) against asexual blood stage Plasmodium falciparum ,using a nano luciferase reporter read-out” (2022).

The campaign covered roughly 150,000 compounds. About 540 (0.36%) showed an effect of 50% or more. The list shows a part of the results.

The subject of the experiment is Plasmodium falciparum. Briefly: Primary screen in NF54 nanoGlo assay, in single point, at 2uM, 72h; a lower Z score goes with more inhibition. In kind it is functional, Erythrocyte. Conditions: timepoint 72 hour.
Consider `Cc1ccccc1O[C@H](C(=O)NCc1n[nH]c(=O)[nH]1)C(C)C`, for which the % Inhibition (usually the relative decrease from the control value, in per cent) was -2% and the Z score came out at 0.29.
As to `CCOC(=O)CN(C(=O)c1ccncc1F)C(C)(C)C`, the “% Inhibition” value is -11% and the Z score was determined as 1.08.
As to `O=C(Cc1cccc(O)c1)N[C@H](c1ccccc1)C1CCOCC1`, the “% Inhibition” value is -3% and the Z score is recorded as 0.54.
In the same order, the values of `COCCc1ccnc(NC(=O)N2CC3(CCOCC3)[C@@H]3CCC[C@@H]32)c1` are 13% and -1.61.
Take `CC[C@@H](c1ccccn1)N(C)Cc1ccc(Cl)o1`: the “% Inhibition” value came out at 5% and the Z score is on record as -0.92.
In the same order, the values of `COc1ccccc1N(CC(=O)Nc1ccccc1C(=O)NCCc1ccccc1)S(=O)(=O)c1ccc(C)cc1` are -14% and 2.26.
In the same order, the values of `Cc1ccc(C(=O)NCCc2cc(F)cc3c2OCOC3)c(O)c1C` are 0% and -0.02.
The corresponding values for `Cc1noc2ncnc(N3CCOC[C@@H]3CC(C)C)c12` are -4% and 0.52.
Regarding `COc1ccc(CCNC(=O)c2csc(CN(Cc3ccc(C)cc3)Cc3ccc(F)cc3)n2)cc1OC`, the “% Inhibition” value is -9% and the Z score came to 0.91.
In the same order, the values of `Cc1ccc(C2CC(C)CCN2S(=O)(=O)c2ccc3c(c2)ncn3C)o1` (stereo not given) are -2% and 0.26.
For the compound `C[C@H](Oc1ccccc1)C(=O)NCc1ccc2c(c1)CCN2C(=O)c1ccccc1`, the “% Inhibition” value was -8% and the Z score amounted to 1.48.
With `Cc1cc(C2CCC2)nc(-c2cccc(O)c2)n1`, the “% Inhibition” value came out at 11% and the Z score is recorded as -1.45.
In the same order, the values of `Cc1ccc(CN(C)C(=O)[C@@H](NS(=O)(=O)c2ccc3ccccc3c2)C(C)C)o1` are 2% and -0.4.
`COc1cncc(C(NC(=O)c2n[nH]c3c2CCC3)[C@H]2C[C@@H](O)C2)c1` (stereo not given in full): the “% Inhibition” value was -6% and the Z score was 0.98.
In the same order, the values of `CC1CN(CC2CCCCCC2)CC(C)O1` (stereo not given) are -1% and 0.13.
In the same order, the values of `Cn1nc(C(=O)N2CCCCCC2)c(=O)c2ccccc21` are -8% and 0.96.
The corresponding values for `O=C(Cn1cccc1-c1nc(-c2ccc(F)cc2)no1)N1CCCCC1` are -5% and 0.66.
Regarding `COc1cc(N[C@@H](C)c2nc(CC(C)C)no2)ncn1`, the “% Inhibition” value is recorded as -11% and the Z score turned out to be 2.06.
The corresponding values for `O=C(CCOC1CCOCC1)N1CCC[C@H]1c1ccn[nH]1` are -11% and 2.11.
In the same order, the values of `CC(C)c1ncsc1C(=O)N1CCC2(CC1)COC(=O)N2` are -8% and 0.81.
In the same order, the values of `CCOc1ccc(CN[C@@H](CC)CO)cc1Cl` are -4% and 0.58.
With `COc1cc(=O)[nH]cc1C(=O)N1CC[C@@](F)(c2ccccc2F)C1`, the “% Inhibition” value is given as -8% and the Z score turned out to be 1.53.
Turning to `CN(C)[C@H]1CN(Cc2ccc3ccn(Cc4ccccc4)c3c2)C[C@@H]1O`, the “% Inhibition” value was found to be 2% and the Z score is given as -0.29.
In the same order, the values of `CCc1nnnn1Cc1nc(C)cs1` are -8% and 0.85.
In the same order, the values of `C[C@@H](Cn1cccn1)C(=O)N(Cc1ccc2c(c1)OCO2)C1CC1` are -1% and 0.2.
In the same order, the values of `COc1cccc(-c2nc(S(=O)(=O)c3ccc4c(c3)OCCO4)c(NC3CC3)o2)c1` are -19% and 2.46.
In the case of `COc1ccc(Br)cc1CNC(C)C`, the “% Inhibition” value is listed as -7% and the Z score is 1.04.
For `Cc1ccn([C@@H](C)CC(=O)NCc2ccc(C)o2)n1`, the “% Inhibition” value is on record as 2% and the Z score is -0.4.
Regarding `O=S(=O)(Nc1cccc2c1CCCC2)c1ccc2c(c1)OCCO2`, the “% Inhibition” value is given as 11% and the Z score is -1.57.
Consider `O=C(NCC1CCCCCCC1)N1CCC(C(F)(F)F)(C(F)(F)F)C1`, for which the “% Inhibition” value is listed as -5% and the Z score was 0.76.
In the same order, the values of `Cc1nccn1-c1c(Cl)cccc1NS(=O)(=O)c1cnc(-c2ccccc2)nc1` are -6% and 0.71.
Turning to `CCn1ncc(CN2CC(Cc3nc(-c4cccnc4)no3)C2)c1C`, the “% Inhibition” value is reported as -14% and the Z score is listed as 1.94.
Take `Nc1nc(N2CCC(Cc3ccccc3)CC2)n[nH]1`: the “% Inhibition” value was found to be 3% and the Z score was -0.34.
For the compound `COc1cccc(CNC(=O)C[C@H]2C(=O)NCCN2C/C=C/c2ccccc2)c1OC`, the “% Inhibition” value is listed as -1% and the Z score is 0.19.
In the same order, the values of `O=C(Cn1cnc2cc3c(cc21)OCCO3)NCCc1ccc(F)cc1` are -4% and 0.5.
The corresponding values for `CC(=O)N1C[C@H]2CN(C(=O)Cc3cccc(Cl)c3)CC[C@@]2(c2nc(C)n[nH]2)C1` are 38% and -4.26.
In the same order, the values of `C[C@H]1CCN1CC(=O)NCc1cccs1` are 5% and -0.96.
For the compound `C[C@@](CO)(NC(=O)NC1CCCCC1)C1CC1`, the “% Inhibition” value was -2% and the Z score was found to be 0.27.
As to `C[C@H]1CCS(=O)(=O)CCN1C(=O)c1cccc2cnccc12`, the “% Inhibition” value was 2% and the Z score is recorded as -0.2.
The corresponding values for `C[C@@H](NCc1ccccn1)c1cccc(Cl)c1` are -15% and 1.89.
In the same order, the values of `CCc1nc(C)cc(N2CCN(c3nccs3)CC2)n1` are -11% and 0.94.
In the same order, the values of `CCOc1ccccc1-c1cc(NC(=O)Cc2noc3ccccc23)on1` are 1% and -0.26.
Turning to `CN1CCN(c2ccc(N3CCN(C(=O)c4ccco4)CC3)nn2)CC1`, the “% Inhibition” value is -20% and the Z score is reported as 3.13.
The corresponding values for `Cc1cc(Cl)c2ncc(C#N)c(NCCOCCO)c2c1` are -9% and 0.78.
In the same order, the values of `OC[C@H]1CN(c2cc(C(F)(F)F)ccn2)C[C@H]1CN1CCCCC1` are 5% and -1.01.
In the same order, the values of `O=C(c1ccncc1)N(Cc1cc2ccccc2nc1O)C1CCCCC1` are -14% and 1.49.
As to `Cc1cc(C2CCC2)nc(NCCn2cccn2)n1`, the “% Inhibition” value amounted to 3% and the Z score is recorded as -0.37.
With `CN(CC[C@H]1CN(C(=O)Cc2cccs2)CC[C@H]1CC(=O)O)c1ccccc1`, the “% Inhibition” value is -7% and the Z score came out at 1.17.
The corresponding values for `COCC(=O)N[C@H]1[C@H](c2ccccc2)N(C(=O)C2CCC2)CC[C@@]1(C)O` are -10% and 2.01.
With `Cc1ccccc1N(C(=O)c1ccco1)c1nc2ccccc2s1`, the “% Inhibition” value worked out at 9% and the Z score is -1.15.
In the same order, the values of `Cc1nocc1S(=O)(=O)N1CCC[C@H]1c1ccnn1C` are -11% and 2.
In the same order, the values of `N#Cc1ccc(-n2nc([C@H]3CCOC3)nc2-c2ccoc2)cc1` are -9% and 1.1.
The corresponding values for `CC(=O)N1CCN(C(=O)C[C@H]2COCCN2C/C=C/c2ccccc2)CC1` are -13% and 1.74.
Turning to `Cc1noc(C)c1C(=O)N[C@H]1CCc2n[nH]c(=O)n2CC1`, the “% Inhibition” value is reported as -10% and the Z score is 1.51.
In the same order, the values of `O=C(c1cc(Br)c2c(c1)OCCO2)N1CC(=O)N(C2CC2)C1` are -13% and 2.64.
The corresponding values for `c1nc(N2CCC(n3cc(CC4CCCCC4)nn3)CC2)c2nc[nH]c2n1` are 1% and -0.13.
The corresponding values for `Cc1cnc(C(=O)Nc2cnns2)cn1` are -11% and 1.66.
As for `CCN(C(=O)c1cn(C(C)(C)C)nn1)c1cccnc1C`, the “% Inhibition” value is reported as 4% and the Z score is -0.65.
In the same order, the values of `CC=C(C)C(=O)NC1CCCC(NC(=O)OC(C)(C)C)C1` (stereo not given) are -5% and 0.6.
With `Cc1ccc(C(=O)NC2CCC(CC3CCC(NC(=O)c4ccc(C)o4)CC3)CC2)o1` (stereo not given), the “% Inhibition” value is recorded as -13% and the Z score was determined as 1.64.
As for `C[C@]1(c2ccccc2)CCC(=O)N(CCC2(O)CCCC2)C1`, the “% Inhibition” value is reported as -9% and the Z score came out at 1.56.
In the same order, the values of `CN1CCCC[C@H](N(C)Cc2noc3c2COCC3)C1=O` are -11% and 1.33.
The corresponding values for `Cc1ccc(N2C(=O)C(=O)N(Cc3cc(C)no3)C2=O)c(C)c1` are -2% and 0.36.
With `COc1ccc(CNC(=O)Cc2nnc(-c3cccc(Br)c3)o2)c(OC)c1`, the “% Inhibition” value is given as -8% and the Z score came to 0.88.
The corresponding values for `Cn1ccc(C2CCN(CC(=O)NC(C)(C)C)CC2)n1` are -8% and 1.01.
In the same order, the values of `O=C(c1ccoc1)N1CC[C@H](Oc2cccc(Cl)c2)C1` are -19% and 1.88.
For the compound `C=CCN(CC=C)[C@H]1CCC(=O)N(CCOc2ccc(F)cc2)CC1`, the “% Inhibition” value is listed as 4% and the Z score is -0.56.
In the same order, the values of `CCO[C@@H](c1ccccc1)c1ccc2c(c1)CN(Cc1cccnc1)CCO2` are -8% and 1.03.
Take `C[C@@H](Cn1cccn1)NC(=O)c1ccc2c(c1)OCO2`: the “% Inhibition” value is recorded as 1% and the Z score is -0.1.
The corresponding values for `CCOC(=O)NCCC(=O)N1CCC[C@H](C)C1` are 7% and -0.74.
The corresponding values for `Cc1ccc(S(=O)(=O)NC[C@H]2CCCO2)s1` are -17% and 1.87.
The corresponding values for `Cc1nn(C)c2nc(N[C@H]3CCCN(C(=O)c4cccs4)C3)sc12` are -3% and 0.69.
Regarding `CC(=O)c1ccc(OC(C)C(=O)NC2CCCC(C)C2C)cc1F` (stereo not given), the “% Inhibition” value is on record as -15% and the Z score amounted to 1.61.
The corresponding values for `O=C1C(N2C(=O)[C@@H]3CCCN3C2=O)CCN1C1CC1` (stereo not given in full) are 2% and -0.33.
In the same order, the values of `Cc1nc2n(n1)CC(NC1CCCC(C(F)(F)F)C1)CC2` (stereo not given) are -16% and 3.03.
The corresponding values for `c1ccc(CCN2CCC[C@@]3(CCN(Cc4nc5ccccc5[nH]4)C3)C2)cc1` are 0% and -0.02.
Turning to `CC1CCCC2(C1)NC(=O)N(Cc1nnc(C(C)C)s1)C2=O` (stereo not given), the “% Inhibition” value is reported as 16% and the Z score is listed as -1.99.
The corresponding values for `Cn1c(=O)sc2cc(NC(=O)C(C)(C)C)ccc21` are -8% and 1.05.
In the case of `CC1CCN(CC2CCCN(C(=O)NC(C)c3ccncc3)C2)CC1` (stereo not given), the “% Inhibition” value was -3% and the Z score is on record as 0.46.
`O=C1CCCC1C1CCCN1C(=O)c1cnc(-c2ccccc2)nc1` (stereo not given): the “% Inhibition” value is recorded as -21% and the Z score stood at 4.05.
In the case of `O=C([C@H]1CC12CCN(Cc1ccc(N3CCCC3)cc1)CC2)N1CCN(Cc2ccccc2)CC1`, the “% Inhibition” value is recorded as -7% and the Z score stood at 1.01.
`CC(=O)c1c(C)nn(CCC(=O)N2C[C@@H]3NC(=O)CN(C)C(=O)c4ccc(C)c(c4)Oc4cccc(c4)CO[C@H]3C2)c1C`: the “% Inhibition” value is -2% and the Z score is given as 0.34.
The corresponding values for `Cn1cc(S(=O)(=O)NC[C@H](OCCO)c2ccsc2)cn1` are -18% and 2.07.
The corresponding values for `Cc1nocc1C(=O)N[C@@](C)(CO)c1cccc(Br)c1` are -14% and 1.62.
In the same order, the values of `Fc1ccc(Oc2nc3ccccc3nc2Oc2ccc(F)cc2F)c(F)c1` are -2% and 0.23.
